Results are given in words; binding and its absence hold for the method and conditions named. Some entries that bind do so weakly or less than the wild type. Where a sequence is shown, tags or fusion partners need not be part of it.
What was measured:
Test in all cases: LacO/LacR tethering assay (recruitment to a LacO array in cells); mCherry-LacRnls-bait transiently transfected and held at the LacO array of U2OS 2-6-5 cells; colocalization of the GFP-tagged prey at the mCherry locus quantified; FOK1 nuclease not expressed
[1] = target: T1, mCherry-LacRnls-FIGNL1 KDm (K447A/D500A) (human) (UniProt Q6PIW4)
T1 sequence: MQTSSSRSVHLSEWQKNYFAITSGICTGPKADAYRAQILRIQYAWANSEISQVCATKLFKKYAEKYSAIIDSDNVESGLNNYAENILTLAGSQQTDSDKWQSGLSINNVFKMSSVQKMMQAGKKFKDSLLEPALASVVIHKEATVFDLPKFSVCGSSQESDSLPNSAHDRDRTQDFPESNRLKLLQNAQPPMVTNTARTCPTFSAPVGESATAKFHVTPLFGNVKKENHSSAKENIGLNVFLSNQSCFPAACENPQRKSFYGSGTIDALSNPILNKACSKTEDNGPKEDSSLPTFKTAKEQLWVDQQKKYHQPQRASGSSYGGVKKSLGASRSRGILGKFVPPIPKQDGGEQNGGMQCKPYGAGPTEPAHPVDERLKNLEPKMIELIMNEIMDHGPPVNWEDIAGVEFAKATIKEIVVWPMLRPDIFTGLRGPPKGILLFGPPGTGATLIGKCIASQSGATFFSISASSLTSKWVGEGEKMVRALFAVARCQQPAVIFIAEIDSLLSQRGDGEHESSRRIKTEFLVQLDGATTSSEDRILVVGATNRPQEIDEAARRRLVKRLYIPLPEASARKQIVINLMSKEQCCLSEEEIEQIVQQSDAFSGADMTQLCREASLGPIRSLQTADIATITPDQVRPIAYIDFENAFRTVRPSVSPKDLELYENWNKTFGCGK

[2] = target: T2, mCherry-LacRnls-FIGNL1 K447A (human) (UniProt Q6PIW4)
T2 sequence: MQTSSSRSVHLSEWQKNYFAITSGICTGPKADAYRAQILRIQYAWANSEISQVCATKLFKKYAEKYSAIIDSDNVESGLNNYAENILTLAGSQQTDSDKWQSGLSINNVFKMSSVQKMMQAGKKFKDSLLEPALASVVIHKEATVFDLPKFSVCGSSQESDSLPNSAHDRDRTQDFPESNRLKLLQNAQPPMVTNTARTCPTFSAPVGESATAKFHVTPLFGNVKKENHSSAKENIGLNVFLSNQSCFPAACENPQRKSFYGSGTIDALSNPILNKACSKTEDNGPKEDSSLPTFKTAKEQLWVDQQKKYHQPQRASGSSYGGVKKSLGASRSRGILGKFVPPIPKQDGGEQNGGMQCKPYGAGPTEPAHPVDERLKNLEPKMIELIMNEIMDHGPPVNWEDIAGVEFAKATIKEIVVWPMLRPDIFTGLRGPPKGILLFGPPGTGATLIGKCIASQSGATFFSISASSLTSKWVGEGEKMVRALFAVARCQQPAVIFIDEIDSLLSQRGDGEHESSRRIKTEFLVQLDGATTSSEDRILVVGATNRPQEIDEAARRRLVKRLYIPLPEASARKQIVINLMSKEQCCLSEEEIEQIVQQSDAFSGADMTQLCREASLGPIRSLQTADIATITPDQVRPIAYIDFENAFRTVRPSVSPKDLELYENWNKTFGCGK

[3] = target: T3, mCherry-LacRnls-FIGNL1 amino acids 121 to 674 (human) (UniProt Q6PIW4)
T3 sequence: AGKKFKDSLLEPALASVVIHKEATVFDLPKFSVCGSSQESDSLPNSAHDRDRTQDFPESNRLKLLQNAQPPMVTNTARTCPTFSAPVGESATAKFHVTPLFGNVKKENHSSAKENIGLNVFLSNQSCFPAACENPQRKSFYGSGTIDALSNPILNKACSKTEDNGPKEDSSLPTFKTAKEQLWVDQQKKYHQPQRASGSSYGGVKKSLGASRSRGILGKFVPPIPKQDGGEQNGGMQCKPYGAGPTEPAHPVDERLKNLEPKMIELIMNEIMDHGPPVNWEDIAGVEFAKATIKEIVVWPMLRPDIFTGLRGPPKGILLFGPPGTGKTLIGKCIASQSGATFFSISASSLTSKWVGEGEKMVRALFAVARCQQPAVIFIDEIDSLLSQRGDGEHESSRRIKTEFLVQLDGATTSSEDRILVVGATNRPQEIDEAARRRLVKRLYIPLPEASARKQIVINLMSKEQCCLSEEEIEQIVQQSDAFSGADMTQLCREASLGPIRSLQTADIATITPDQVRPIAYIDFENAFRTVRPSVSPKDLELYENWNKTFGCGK

[4] = target: T4, mCherry-LacRnls-FIGNL1 F295E (human) (UniProt Q6PIW4)
T4 sequence: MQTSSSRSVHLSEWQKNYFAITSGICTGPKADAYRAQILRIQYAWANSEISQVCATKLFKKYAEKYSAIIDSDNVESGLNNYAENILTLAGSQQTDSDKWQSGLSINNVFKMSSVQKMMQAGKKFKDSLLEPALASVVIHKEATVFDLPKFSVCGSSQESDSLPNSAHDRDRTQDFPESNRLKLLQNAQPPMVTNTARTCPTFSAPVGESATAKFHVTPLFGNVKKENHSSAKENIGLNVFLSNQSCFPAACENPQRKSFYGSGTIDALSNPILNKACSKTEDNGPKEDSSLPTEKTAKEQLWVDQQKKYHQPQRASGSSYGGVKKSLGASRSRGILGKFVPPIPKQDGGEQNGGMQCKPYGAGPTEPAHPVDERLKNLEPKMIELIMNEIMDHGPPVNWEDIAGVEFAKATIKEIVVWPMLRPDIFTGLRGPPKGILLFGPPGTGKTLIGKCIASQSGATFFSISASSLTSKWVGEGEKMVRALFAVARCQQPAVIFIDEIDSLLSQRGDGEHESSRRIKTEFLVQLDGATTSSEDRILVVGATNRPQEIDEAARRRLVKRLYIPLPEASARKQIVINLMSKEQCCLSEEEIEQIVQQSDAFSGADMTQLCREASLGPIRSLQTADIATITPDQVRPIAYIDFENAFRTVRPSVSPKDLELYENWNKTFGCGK

binding [1]: binds | binding [2]: binds | binding [3]: no binding | binding [4]: binds
B1: GFP-FIRRM full length (protein, UniProt Q9NSG2 1-853)
chain: MFLPHMNHLTLEQTFFSQVLPKTVKLFDDMMYELTSQARGLSSQNLEIQTTLRNILQTMVQLLGALTGCVQHICATQESIILENIQSLPSSVLHIIKSTFVHCKNSESVYSGCLHLVSDLLQALFKEAYSLQKQLMELLDMVCMDPLVDDNDDILNMVIVIHSLLDICSVISSMDHAFHANTWKFIIKQSLKHQSIIKSQLKHKDIITSLCEDILFSFHSCLQLAEQMTQSDAQDNADYRLFQKTLKLCRFFANSLLHYAKEFLPFLSDSCCTLHQLYLQIHSKFPPSLYATRISKAHQEEIAGAFLVTLDPLISQLLTFQPFMQVVLDSKLDLPCELQFPQCLLLVVVMDKLPSQPKEVQTLWCTDSQVSETTTRISLLKAVFYSFEQCSGELSLPVHLQGLKSKGKAEVAVTLYQHVCVHLCTFITSFHPSLFAELDAALLNAVLSANMITSLLAMDAWCFLARYGTAELCAHHVTIVAHLIKSCPGECYQLINLSILLKRLFFFMAPPHQLEFIQKFSPKEAENLPLWQHISFQALPPELREQTVHEVTTVGTAECRKWLSRSRTLGELESLNTVLSALLAVCNSAGEALDTGKQTAIIEVVSQLWAFLNIKQVADQPYVQQTFSLLLPLLGFFIQTLDPKLILQAVTLQTSLLKLELPDYVRLAMLDFVSSLGKLFIPEAIQDRILPNLSCMFALLLADRSWLLEQHTLEAFTQFAEGTNHEEIVPQCLSSEETKNKVVSFLEKTGFVDETEAAKVERVKQEKGIFWEPFANVTVEEAKRSSLQPYAKRARQEFPWEEEYRSALHTIAGALEATESLLQKGPAPAWLSMEMEALQERMDKLKRYIHTLG
